The source gives no read counts; variants with many changes may rest on few reads.
B1: LINE1-mini (parent)
chain: GGCAGAGCUCAACACAGCGUGGCAAAGUGGCUGUGGCUAGACUGCC

Variants of: B1
Test: self-cleavage, relative activity (ratio to wild type); higher = more cleavage; in vitro, sequencing; the parent is a self-cleaving ribozyme

For A12G U28A U43A, which self-cleavage is on record?
Its self-cleavage is 0.03.

With A12G A16G U20C C37U A39C G40A as the variant, how does the self-cleavage read?
The self-cleavage was 0.03.

For A12G G27A U38C, which self-cleavage is on record?
Its self-cleavage is 0.11.

Which self-cleavage does the source give for A12C G33A A39C here?
The self-cleavage was 0.03.

With A12U C13U C18G G19A G30A U34A as the variant, how does the self-cleavage read?
The self-cleavage was 0.01.

For A12C G17A G19C G22A G44A C45A, which self-cleavage is on record?
Its self-cleavage is 0.01.

Which self-cleavage does the source give for A12G C37G C45U here?
The self-cleavage was 0.04.

With A12C G17A C18A G40C C46G as the variant, how does the self-cleavage read?
Its self-cleavage is 0.

For A12G A26U C42A, which self-cleavage is on record?
Its self-cleavage is 0.01.

With A12G G27C C45G as the variant, how does the self-cleavage read?
Its self-cleavage is 0.02.

Which self-cleavage does the source give for A12C G17C G27C here?
Its self-cleavage is 0.02.

For A12C G21U C42U, which self-cleavage is on record?
The self-cleavage was 0.11.

For A12G U34C C37U U38G, which self-cleavage is on record?
The self-cleavage was 0.01.

With A12U C15U G36A G40A as the variant, how does the self-cleavage read?
The self-cleavage was 0.01.

Which self-cleavage does the source give for A12G U34A G44U here?
The self-cleavage was 0.03.

With A12G C23G U32A C45U as the variant, how does the self-cleavage read?
Its self-cleavage is 0.07.

With A12C C37U A39U as the variant, how does the self-cleavage read?
The self-cleavage was 0.

Which self-cleavage does the source give for A12G A16G G17A G33C here?
Its self-cleavage is 0.03.

Which self-cleavage does the source give for A12G C23U G29U here?
Its self-cleavage is 0.

For A12G C15A G21U C37U, which self-cleavage is on record?
Its self-cleavage is 0.06.

Which self-cleavage does the source give for A12G A14C G22U G36U here?
The self-cleavage was 0.01.

Which self-cleavage does the source give for A12U C13U A39C G44U here?
The self-cleavage was 0.09.

For A12C C37A C46U, which self-cleavage is on record?
The self-cleavage was 0.01.

Which self-cleavage does the source give for A12U C15A G17C G27C here?
Its self-cleavage is 0.04.

For A12G A16U G22U A41U G44C C45A, which self-cleavage is on record?
Its self-cleavage is 0.

With A12G G44C C45A C46A as the variant, how does the self-cleavage read?
The self-cleavage was 0.08.

For A12C U38C G44C C45G, which self-cleavage is on record?
The self-cleavage was 0.04.

For A12G C15U G22C G40C, which self-cleavage is on record?
Its self-cleavage is 0.02.

For A12G G30U A39U, which self-cleavage is on record?
Its self-cleavage is 0.06.

For A12G G19C G22A C45G, which self-cleavage is on record?
Its self-cleavage is 0.

Which self-cleavage does the source give for A12U A16G G27U here?
The self-cleavage was 0.45.

Which self-cleavage does the source give for A12C G17C C23A A26C G40A here?
Its self-cleavage is 0.

With A12C U32A G36U C45G as the variant, how does the self-cleavage read?
Its self-cleavage is 0.02.

For A12C U20C G21C A26C G27U G30C G35U A39U, which self-cleavage is on record?
The self-cleavage was 0.02.

With A12U C15A U34C as the variant, how does the self-cleavage read?
Its self-cleavage is 0.12.

Which self-cleavage does the source give for A12G G30C C42G C46A here?
Its self-cleavage is 0.01.

Which self-cleavage does the source give for A12G U28C U38C G40C here?
Its self-cleavage is 0.06.

Which self-cleavage does the source give for A12U A16U A26C G30A here?
The self-cleavage was 0.02.

Which self-cleavage does the source give for A12G C23U G44C here?
The self-cleavage was 0.04.

Which self-cleavage does the source give for A12U C23A U28A here?
The self-cleavage was 0.07.

For A12U C13U G22A A25G G29C G36A, which self-cleavage is on record?
The self-cleavage was 0.

With A12G G19C C23G as the variant, how does the self-cleavage read?
Its self-cleavage is 0.

Which self-cleavage does the source give for A12G G21U G35U A41G here?
The self-cleavage was 0.01.

For A12C G40A U43C, which self-cleavage is on record?
Its self-cleavage is 0.1.

Which self-cleavage does the source give for A12G A16G G17C U20C G22A here?
Its self-cleavage is 0.02.

With A12U C15U U28C as the variant, how does the self-cleavage read?
The self-cleavage was 0.14.

Which self-cleavage does the source give for A12U A14G G17C A24U here?
Its self-cleavage is 0.22.

Which self-cleavage does the source give for A12U A26U G36U C37G here?
Its self-cleavage is 0.01.

With A12U C15A C31G as the variant, how does the self-cleavage read?
The self-cleavage was 0.02.

For A12C G17C G19C, which self-cleavage is on record?
Its self-cleavage is 0.01.

Which self-cleavage does the source give for A12C U38G G40U here?
The self-cleavage was 0.01.

Which self-cleavage does the source give for A12G G27C U32A G33U G40U here?
Its self-cleavage is 0.03.

For A12G G27C C37G, which self-cleavage is on record?
Its self-cleavage is 0.

For A12G A16C C18A G21A U34A G35C C42G, which self-cleavage is on record?
Its self-cleavage is 0.01.

Which self-cleavage does the source give for A12U A14U G36A here?
The self-cleavage was 0.03.

With A12G U20G G21U as the variant, how does the self-cleavage read?
The self-cleavage was 0.04.

For A12G G33C A41C, which self-cleavage is on record?
The self-cleavage was 0.01.

Which self-cleavage does the source give for A12G C13U C15U C18A G36U G44U here?
Its self-cleavage is 0.02.

Which self-cleavage does the source give for A12G A14U G22A A39U here?
The self-cleavage was 0.07.

Which self-cleavage does the source give for A12G C18G C31G G36U here?
The self-cleavage was 0.03.

For A12U A14C G29C, which self-cleavage is on record?
Its self-cleavage is 0.03.

For A12G A24U G40U A41C, which self-cleavage is on record?
Its self-cleavage is 0.12.

Which self-cleavage does the source give for A12G G27U G35C here?
Its self-cleavage is 0.03.

Which self-cleavage does the source give for A12G G21A U43C here?
Its self-cleavage is 0.05.

For A12G U28G C37A G40A, which self-cleavage is on record?
Its self-cleavage is 0.2.

Which self-cleavage does the source give for A12G A16U C18U G40U here?
The self-cleavage was 0.01.

With A12G C23A U28C as the variant, how does the self-cleavage read?
The self-cleavage was 0.01.

Which self-cleavage does the source give for A12G C23A U28A here?
The self-cleavage was 0.01.

For A12C C31U G33C, which self-cleavage is on record?
Its self-cleavage is 0.01.

For A12C C31U G33A, which self-cleavage is on record?
Its self-cleavage is 0.02.

For A12U A14G A39C A41C, which self-cleavage is on record?
Its self-cleavage is 0.05.

For A12C G17C G30U G35A, which self-cleavage is on record?
Its self-cleavage is 0.02.

For A12C G19C C23A G27A C37A C46A, which self-cleavage is on record?
The self-cleavage was 0.01.

For A12C U20C G36C, which self-cleavage is on record?
The self-cleavage was 0.03.

For A12U A39C G44A, which self-cleavage is on record?
Its self-cleavage is 0.03.

With A12C G19A G22U as the variant, how does the self-cleavage read?
The self-cleavage was 0.01.

For A12G G27U U43G, which self-cleavage is on record?
The self-cleavage was 0.26.

With A12U C15A A16U G19C as the variant, how does the self-cleavage read?
The self-cleavage was 0.04.

For A12C G30A A41C, which self-cleavage is on record?
Its self-cleavage is 0.03.

With A12C G30C C31A C45U C46G as the variant, how does the self-cleavage read?
Its self-cleavage is 0.01.

For A12G G33A C37G C42A, which self-cleavage is on record?
Its self-cleavage is 0.03.

Which self-cleavage does the source give for A12G C15U G17U U20A G40U here?
Its self-cleavage is 0.02.

For A12G U28A A39U C46U, which self-cleavage is on record?
The self-cleavage was 0.03.

Which self-cleavage does the source give for A12G G19U G27C U34A here?
Its self-cleavage is 0.

Source: the RNAGym collection of RNA variant scans (doi:10.7554/elife.90254)
